Results reported in a collection of fitness landscapes (doi:10.1016/j.celrep.2020.107928).
The full ranking holds about 81,000 sequences; the median of “one-hybrid fitness for binding parS DNA” is about -0.17, and the highest 2% start at about 0.51. The list shows a part of the results.

B1: Caulobacter ParB omega fusion; a variant is named by its letters at X, in order, B8GW30 (parent)
chain: MESVVVGEPGMSEGRRGLGRGLSALLGEVDAAPAQAPGEQLGGSREAPIEILQRNPDQPRRTFREEDLEDLSNSIREKGVLQPILVRPSPDTAGEYQIVAGERAWRAAQRAGLKTVPIMVRELDDLAVLEIGIIENVQRADLNVLEEALSYKVLMEKFERTQENIAQTIGKSXSHVANXMRLLXLPDEVQSYLVSGELTAXHARAIAAAADPVALAKQIIEGGLSVRETEALARKAPNLSAGKSKGGRPPRVKDTDTQALESDLSSVLGLDVSIDHRGSTGTLTITYATLEQLDDLCNRLTRGI

Variants of: B1
Test: one-hybrid fitness for binding parS DNA (scaled: cognate 1, non-cognate 0); higher = stronger binding
Conditions: with parS DNA site
Summary of the method: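 In E. coli USO, a HIS3 reporter with its site placed 19 bp from the promoter was used to select Caulobacter ParB variants randomised at four specificity codons. Growth lasted 48 hours at 37°C on histidine-free M9 containing 0.1 mM IPTG and 5 mM 3-AT. Fitness was taken as the log change in variant-to-wild-type read ratio from Illumina sequencing of pre- and post-selection plasmids, rescaled between the non-cognate and cognate sites.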

| Variant | one-hybrid fitness for binding parS DNA |
| --- | --- |
| GPFS | ≤ 0.2 |
| PTTM | ≤ 0.2 |
| NGDM | ≤ 0.2 |
| AYNR | ≤ 0.2 |
| PKLK | ≤ 0.2 |
| ESNY | ≤ 0.2 |
| ASVN | ≤ 0.2 |
| LCKR | ≤ 0.2 |
| LSSL | ≤ 0.2 |
| TQAG | ≤ 0.2 |
| NLRG | ≤ 0.2 |
| WIYW | ≤ 0.2 |
| MRKI | ≤ 0.2 |
| TCET | ≤ 0.2 |
| DFVR | ≤ 0.2 |
| HPDN | ≤ 0.2 |
| GLTP | ≤ 0.2 |
| GKRR | ≤ 0.2 |
| PIKS | ≤ 0.2 |
| RAAG | 1 |
| PNCV | ≤ 0.2 |
| TQVF | ≤ 0.2 |
| SRYH | ≤ 0.2 |
| DRAY | ≤ 0.2 |
| RKMK | ≤ 0.2 |
| CCKG | ≤ 0.2 |

| Variant | one-hybrid fitness for binding parS DNA |
| --- | --- |
| QAQS | ≤ 0.2 |
| MARA | ≤ 0.2 |
| MNTV | ≤ 0.2 |
| VDDR | ≤ 0.2 |
| ASDW | ≤ 0.2 |
| GRLP | ≤ 0.2 |
| GHSR | ≤ 0.2 |
| SYHV | ≤ 0.2 |
| NQPT | ≤ 0.2 |
| YWPV | ≤ 0.2 |
| RQHC | 0.946 |
| VEYF | ≤ 0.2 |
| HDIG | ≤ 0.2 |
| VNLD | ≤ 0.2 |
| PYYM | ≤ 0.2 |
| RLVL | ≤ 0.2 |
| KETC | ≤ 0.2 |
| DPKI | ≤ 0.2 |
| KYAT | ≤ 0.2 |
| SRTW | ≤ 0.2 |
| TRCR | ≤ 0.2 |
| QDMS | ≤ 0.2 |
| QDGS | ≤ 0.2 |
| LPET | ≤ 0.2 |
| KCRA | ≤ 0.2 |
| QKRC | ≤ 0.2 |

| Variant | one-hybrid fitness for binding parS DNA |
| --- | --- |
| THPV | ≤ 0.2 |
| HSLM | ≤ 0.2 |
| RHRL | ≤ 0.2 |
| IMVR | ≤ 0.2 |
| TCNA | ≤ 0.2 |
| ESLG | ≤ 0.2 |
| WYVT | ≤ 0.2 |
| SFYS | ≤ 0.2 |
| HYDY | ≤ 0.2 |
| GKSG | ≤ 0.2 |
| KYFG | ≤ 0.2 |
| HCPV | ≤ 0.2 |
| DWIC | ≤ 0.2 |
| AWIR | ≤ 0.2 |
| EMET | 0.273 |
| YVEG | ≤ 0.2 |
| DWYS | ≤ 0.2 |
| AGMG | ≤ 0.2 |
| RYTG | 0.992 |
| IYLA | ≤ 0.2 |
| HACG | ≤ 0.2 |
| QHPK | ≤ 0.2 |
| PKWR | ≤ 0.2 |
| HIAK | ≤ 0.2 |
| CLVS | ≤ 0.2 |
| HKYV | ≤ 0.2 |

| Variant | one-hybrid fitness for binding parS DNA |
| --- | --- |
| YLGG | ≤ 0.2 |
| SQNT | ≤ 0.2 |
| AYDY | ≤ 0.2 |
| DPSA | ≤ 0.2 |
| YPYP | ≤ 0.2 |
| QYPR | ≤ 0.2 |
| ANQS | ≤ 0.2 |
| QCSW | ≤ 0.2 |
| NGLG | ≤ 0.2 |
| GQDR | ≤ 0.2 |
| YLRR | ≤ 0.2 |
| TVMC | ≤ 0.2 |
| QLHM | ≤ 0.2 |
| RWTG | 0.824 |
| EYPW | ≤ 0.2 |
| VSMG | ≤ 0.2 |
| AEDS | ≤ 0.2 |
| RRED | ≤ 0.2 |
| TTTG | ≤ 0.2 |
| CQRT | ≤ 0.2 |
| LISF | ≤ 0.2 |
| YFGT | ≤ 0.2 |
| QKKQ | ≤ 0.2 |
| KFTR | ≤ 0.2 |
| PIPS | ≤ 0.2 |
| GACF | ≤ 0.2 |

| Variant | one-hybrid fitness for binding parS DNA |
| --- | --- |
| GVLR | ≤ 0.2 |
| NHKL | ≤ 0.2 |
| QSCL | ≤ 0.2 |
| VVPI | ≤ 0.2 |
| AKIL | ≤ 0.2 |
| YKQV | ≤ 0.2 |
| WSPR | ≤ 0.2 |
| EHHV | ≤ 0.2 |
| ISCG | ≤ 0.2 |
| YACK | ≤ 0.2 |
| PYNM | ≤ 0.2 |
| GGGS | ≤ 0.2 |
| MSSM | ≤ 0.2 |
| WPPA | ≤ 0.2 |
| IGAV | ≤ 0.2 |
| VEYC | ≤ 0.2 |
| QPVT | ≤ 0.2 |
| STMC | ≤ 0.2 |
| CWGR | ≤ 0.2 |
| TRLY | ≤ 0.2 |
| KVVG | ≤ 0.2 |
| GTHF | ≤ 0.2 |
| PRGA | ≤ 0.2 |
| HNPC | ≤ 0.2 |
| VMDS | ≤ 0.2 |
| FDSA | ≤ 0.2 |

| Variant | one-hybrid fitness for binding parS DNA |
| --- | --- |
| SMTV | ≤ 0.2 |
| NENR | ≤ 0.2 |
| KRRN | ≤ 0.2 |
| YYDR | ≤ 0.2 |
| FPVY | ≤ 0.2 |
| VASG | ≤ 0.2 |
| RGPP | ≤ 0.2 |
| TIAG | ≤ 0.2 |
| RMLN | 0.439 |
| VTQV | ≤ 0.2 |
| PFSI | ≤ 0.2 |
| FDVC | ≤ 0.2 |
| AGWS | ≤ 0.2 |
| AGCC | ≤ 0.2 |
| CVPM | ≤ 0.2 |
| RMYI | 0.212 |
| PSRK | ≤ 0.2 |
| PRLK | ≤ 0.2 |
| KQSA | ≤ 0.2 |
| LWQY | ≤ 0.2 |
| RPAP | ≤ 0.2 |
| ADND | ≤ 0.2 |
| TISR | ≤ 0.2 |
